{"source": "PubChem BioAssay AID1347434", "about": "(National Center for Advancing Translational Sciences (NCATS), 2020)", "note": "Among all 1,200 compounds or so, about 30 (2%) were called active. About 23% were inconclusive and are not listed. Calls follow the shape of the dose curve; as a rule, active = well fitted inhibition curve with a large enough effect; inconclusive = small, poorly fitted or top-dose-only effect; inactive = flat fitted curve, though single readings scatter. This is one part of the list. % is scaled to controls: 0 for no effect and ±100 for the full control effect; potency is read from the fitted curve at half-maximal effect.", "data": [{"target": "Single-stranded DNA cytosine deaminase (Homo sapiens) (UniProt Q9GZX7)", "sequence (Q9GZX7 whole entry, looked up)": "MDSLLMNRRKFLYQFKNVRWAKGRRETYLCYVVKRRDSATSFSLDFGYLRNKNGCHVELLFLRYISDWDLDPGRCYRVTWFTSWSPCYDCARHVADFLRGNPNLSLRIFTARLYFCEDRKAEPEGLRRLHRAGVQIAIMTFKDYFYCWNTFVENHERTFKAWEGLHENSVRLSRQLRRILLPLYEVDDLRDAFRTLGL", "experiment": "Confirmatory qHTS assay for inhibitors of Activation Induced Cytidine Deaminase (AID): AID signals", "details": "recombinant AID, FRET deamination/UDG coupled fluorescence, 4 h; series mostly up to 115 µM; activity, negative = inhibition: at the top concentration", "outline": "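Read 1 (AID) was measured at 540 ex/590 em after a 30 min NaOH step. The reaction was AID (1 uM, 4/3x stock) with UDG, compound at final 7.32 nM - 114 uM for 10 min, then DJC20/DJC23 substrate for 4 hr at room temperature. A UDG read at 560/665 serves as counterscreen.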", "values": [{"smiles": "C[C@]12C=CC(=O)C=C1CC[C@@H]1C2=CC[C@]2(C)[C@@H](C(=O)CN3CCN(c4cc(N5CCCC5)nc(N5CCCC5)n4)CC3)CC[C@@H]12", "activity, negative = inhibition": "inactive: 23%"}, {"smiles": "CCn1cc(C(=O)NCCc2ccc(C)cc2)c(=O)c2cc(S(=O)(=O)N3CCC(C)CC3)ccc21", "activity, negative = inhibition": "inactive: -14%"}, {"smiles": "Cc1ccccc1OCCCCn1c(CCNC(=O)C(C)(C)C)nc2ccccc21", "activity, negative = inhibition": "inactive: -12.3%"}, {"smiles": "COc1ccc(C)cc1NC(=O)c1ccc2c(SCC(=O)O)c3c(nc2c1)CCCC3", "activity, negative = inhibition": "inactive: 1.98%"}, {"smiles": "CCN(CC)CC(C)CNC(=O)c1cc(-c2ccc(Br)s2)nc2ccccc12", "note": "(configuration not stated)", "activity, negative = inhibition": "inactive: -10.7%"}, {"smiles": "COc1cccc(CNC(=O)c2oc3c(c2C)-c2nn(Cc4cccc(Cl)c4)cc2CC3)c1OC", "activity, negative = inhibition": "inactive: 14.5%"}, {"smiles": "Cc1ccc(C(=O)Nc2ccc(S(=O)(=O)O)c3cc(S(=O)(=O)O)cc(S(=O)(=O)O)c23)cc1NC(=O)c1cccc(NC(=O)Nc2cccc(C(=O)Nc3cc(C(=O)Nc4ccc(S(=O)(=O)O)c5cc(S(=O)(=O)O)cc(S(=O)(=O)O)c45)ccc3C)c2)c1", "Potency": "active: 1120 nM"}, {"smiles": "CN(Cc1ccc(F)cc1)S(=O)(=O)c1nnc(NC(=O)c2ccccc2Br)s1", "activity, negative = inhibition": "inactive: -2.5%"}, {"smiles": "O=C1c2ccccc2C(=O)c2c(NCCc3ccc(O)cc3)ccc(NCCc3ccc(O)cc3)c21", "activity, negative = inhibition": "inactive: 4.87%"}, {"smiles": "CCC(C(=O)N1CCN(c2cc(C)ccc2C)CC1)n1nc(C)n2c(cc3occc32)c1=O", "note": "(configuration not stated)", "activity, negative = inhibition": "inactive: -20%"}, {"smiles": "Cc1ccc(C)c(N2CCN(C(=O)c3ccc4c(c3)N(Cc3ccc(F)cc3)C(=O)c3ccccc3S4=O)CC2)c1", "note": "(configuration not stated)", "activity, negative = inhibition": "inactive: -0.614%"}, {"smiles": "Cc1cc(N)c(-n2cc3c(c2-c2ccc(Br)cc2)c(=O)n(C)c(=O)n3C)cc1C", "activity, negative = inhibition": "inactive: 0.306%"}, {"smiles": "Cc1cccc(N2CCN(C(=O)c3ccc(CS(=O)c4cccc(Cl)c4)o3)CC2)c1C", "note": "(configuration not stated)", "activity, negative = inhibition": "inactive: -18.4%"}, {"smiles": "CCCOc1ccc(-c2cc(C(F)(F)F)c(C#N)c(SCCC(=O)O)n2)cc1", "activity, negative = inhibition": "inactive: -18.2%"}, {"smiles": "CC(=O)N1CCc2c(sc3c2c(=O)n(CCc2ccccc2)c(=O)n3Cc2ccccc2C)C1", "activity, negative = inhibition": "inactive: -11.6%"}, {"smiles": "Cc1ccc(C)c(N2CCN(CCCNC(=O)c3ccc4nc(N5CCC(C)CC5)sc4c3)CC2)c1", "activity, negative = inhibition": "inactive: -23.7%"}, {"smiles": "CC(C)(C)OC(=O)N1CCC(c2c(C(=O)NCc3ccccc3)cnn2-c2ccc(F)cc2)CC1", "activity, negative = inhibition": "inactive: -2.28%"}, {"smiles": "O=C(c1cccn1-c1nnc(N2CCCCC2)s1)N1CCN(c2ccc(Cl)cc2)CC1", "activity, negative = inhibition": "inactive: -25.6%"}, {"smiles": "CC(C)(C)C1CCc2c(sc(NC(=O)c3ccccc3F)c2C(=O)NCc2ccco2)C1", "note": "(configuration not stated)", "activity, negative = inhibition": "inactive: -7.85%"}, {"smiles": "Cc1nn(C(=O)c2ccccc2)c(C)c1Sc1ccc(Cl)cc1", "activity, negative = inhibition": "inactive: -0.0901%"}, {"smiles": "Cc1ccc(C2=NN(CC(=O)NCCCN(CC(C)C)CC(C)C)C(=O)CC2)cc1", "activity, negative = inhibition": "inactive: -12.2%"}, {"smiles": "CCCN(CCC)CCNC(=O)c1cc2c(-c3ccc(Cl)cc3)nn(C)c2s1", "activity, negative = inhibition": "inactive: -17.5%"}]}]}
